Article PMC10009787 (ACS Medicinal Chemistry Letters, 2023)
Like-named read-outs stand apart in the source and are kept apart here.

Experiments:
Test in all cases: SelectScreen kinase profiling / Z′-Lyte kinase assay
[1] = molecular target: BLK (Homo sapiens, UniProt P51451)
[2] = molecular target: BTK (Homo sapiens, UniProt Q06187)
[3] = molecular target: SRC (Homo sapiens, UniProt P12931)
Sequence of UniProt P12931 (P12931 whole entry): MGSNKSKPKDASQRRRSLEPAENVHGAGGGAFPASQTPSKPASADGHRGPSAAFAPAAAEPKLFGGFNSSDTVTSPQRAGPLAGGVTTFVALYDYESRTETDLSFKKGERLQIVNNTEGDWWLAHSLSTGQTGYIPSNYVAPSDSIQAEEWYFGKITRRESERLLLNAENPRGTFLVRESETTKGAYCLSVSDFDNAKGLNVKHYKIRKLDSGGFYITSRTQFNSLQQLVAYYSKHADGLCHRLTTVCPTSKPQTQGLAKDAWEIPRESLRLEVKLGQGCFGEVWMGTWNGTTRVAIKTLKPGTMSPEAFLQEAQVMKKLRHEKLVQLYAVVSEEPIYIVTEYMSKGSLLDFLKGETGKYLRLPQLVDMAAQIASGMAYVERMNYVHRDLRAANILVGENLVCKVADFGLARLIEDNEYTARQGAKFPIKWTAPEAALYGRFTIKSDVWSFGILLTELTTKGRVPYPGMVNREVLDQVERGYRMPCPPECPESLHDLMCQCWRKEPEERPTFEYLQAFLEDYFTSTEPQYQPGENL

Sequence of UniProt Q06187 (Q06187 whole entry): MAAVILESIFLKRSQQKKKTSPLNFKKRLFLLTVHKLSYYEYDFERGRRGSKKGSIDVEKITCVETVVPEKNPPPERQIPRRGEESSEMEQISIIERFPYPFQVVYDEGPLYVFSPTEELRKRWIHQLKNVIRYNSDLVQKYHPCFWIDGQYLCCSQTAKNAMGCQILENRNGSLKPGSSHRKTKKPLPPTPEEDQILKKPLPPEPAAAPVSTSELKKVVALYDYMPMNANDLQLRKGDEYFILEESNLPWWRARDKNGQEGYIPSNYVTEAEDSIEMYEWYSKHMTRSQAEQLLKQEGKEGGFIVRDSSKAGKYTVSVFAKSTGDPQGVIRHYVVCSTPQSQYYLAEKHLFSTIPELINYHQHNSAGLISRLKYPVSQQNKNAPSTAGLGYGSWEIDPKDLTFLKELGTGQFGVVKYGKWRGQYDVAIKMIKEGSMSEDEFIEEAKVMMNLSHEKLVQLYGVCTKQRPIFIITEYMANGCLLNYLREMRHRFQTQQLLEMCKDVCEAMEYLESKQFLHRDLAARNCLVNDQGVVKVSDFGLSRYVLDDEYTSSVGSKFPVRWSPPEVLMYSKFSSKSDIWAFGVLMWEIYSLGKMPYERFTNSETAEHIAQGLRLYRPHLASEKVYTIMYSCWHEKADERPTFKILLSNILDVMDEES
Sequence of UniProt P51451 (P51451 whole entry): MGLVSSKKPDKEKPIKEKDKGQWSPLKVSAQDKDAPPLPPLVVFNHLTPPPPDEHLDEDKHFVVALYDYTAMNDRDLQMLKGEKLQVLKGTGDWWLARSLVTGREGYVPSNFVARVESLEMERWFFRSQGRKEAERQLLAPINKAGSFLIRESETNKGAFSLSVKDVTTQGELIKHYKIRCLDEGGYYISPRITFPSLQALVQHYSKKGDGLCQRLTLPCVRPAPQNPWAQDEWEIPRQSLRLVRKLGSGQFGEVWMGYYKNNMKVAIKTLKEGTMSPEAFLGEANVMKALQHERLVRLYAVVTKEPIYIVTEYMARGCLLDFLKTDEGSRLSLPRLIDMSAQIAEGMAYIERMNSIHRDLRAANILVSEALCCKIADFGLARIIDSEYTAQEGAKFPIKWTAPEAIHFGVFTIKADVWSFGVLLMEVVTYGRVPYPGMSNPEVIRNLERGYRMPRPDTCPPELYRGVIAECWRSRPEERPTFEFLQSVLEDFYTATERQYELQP

Question: Which results are given for C=CC(=O)N1CCC[C@@H](n2nc(-c3ccc(Oc4ccccc4)cc3C)c3c(N)ncnc32)C1 [Compound 2, (R)-1-(3-(4-amino-3-(2-methyl-4-phenoxyphenyl)-1H-pyrazolo[3,4-d]pyrimidin-1-yl)piperidin-1-yl)prop-2-en-1-one]?
Answer: Hillslope ([1]; BLK IC50 curve): 1.06; inhibition at 0.000495 µM ([1]; read-out: % Inhibition Point 1): 23%; inhibition at 0.00152 µM ([1]; read-out: % Inhibition Point 1): 55%; inhibition at 0.00457 µM ([1]; read-out: % Inhibition Point 1): 74%; inhibition at 0.0137 µM ([1]; read-out: % Inhibition Point 1): 99%; inhibition at 0.0412 µM ([1]; read-out: % Inhibition Point 1): 94%; inhibition at 0.123 µM ([1]; read-out: % Inhibition Point 1): 101%; inhibition at 0.37 µM ([1]; read-out: % Inhibition Point 1): 98%; inhibition at 1.11 µM ([1]; read-out: % Inhibition Point 1): 97%; inhibition at 3.33 µM ([1]; read-out: % Inhibition Point 1): 101%; inhibition at 10 µM ([1]; read-out: % Inhibition Point 1): 97%; inhibition at 0.000495 µM ([1]; read-out: % Inhibition Point 2): 23%; inhibition at 0.00152 µM ([1]; read-out: % Inhibition Point 2): 58%; inhibition at 0.00457 µM ([1]; read-out: % Inhibition Point 2): 75%; inhibition at 0.0137 µM ([1]; read-out: % Inhibition Point 2): 88%; inhibition at 0.0412 µM ([1]; read-out: % Inhibition Point 2): 96%; inhibition at 0.123 µM ([1]; read-out: % Inhibition Point 2): 99%; inhibition at 0.37 µM ([1]; read-out: % Inhibition Point 2): 101%; inhibition at 1.11 µM ([1]; read-out: % Inhibition Point 2): 102%; inhibition at 3.33 µM ([1]; read-out: % Inhibition Point 2): 103%; inhibition at 10 µM ([1]; read-out: % Inhibition Point 2): 99%; Hillslope ([2]; BTK IC50 curve): 1.84; inhibition at 0.000495 µM ([2]; read-out: % Inhibition Point 1): 32%; inhibition at 0.00152 µM ([2]; read-out: % Inhibition Point 1): 73%; inhibition at 0.00457 µM ([2]; read-out: % Inhibition Point 1): 93%; inhibition at 0.0137 µM ([2]; read-out: % Inhibition Point 1): 99%; inhibition at 0.0412 µM ([2]; read-out: % Inhibition Point 1): 97%; inhibition at 0.123 µM ([2]; read-out: % Inhibition Point 1): 98%; inhibition at 0.37 µM ([2]; read-out: % Inhibition Point 1): 100%; inhibition at 1.11 µM ([2]; read-out: % Inhibition Point 1): 100%; inhibition at 3.33 µM ([2]; read-out: % Inhibition Point 1): 100%; inhibition at 10 µM ([2]; read-out: % Inhibition Point 1): 123%; inhibition at 0.000495 µM ([2]; read-out: % Inhibition Point 2): 39%; inhibition at 0.00152 µM ([2]; read-out: % Inhibition Point 2): 75%; inhibition at 0.00457 µM ([2]; read-out: % Inhibition Point 2): 95%; inhibition at 0.0137 µM ([2]; read-out: % Inhibition Point 2): 98%; inhibition at 0.0412 µM ([2]; read-out: % Inhibition Point 2): 98%; inhibition at 0.123 µM ([2]; read-out: % Inhibition Point 2): 100%; inhibition at 0.37 µM ([2]; read-out: % Inhibition Point 2): 98%; inhibition at 1.11 µM ([2]; read-out: % Inhibition Point 2): 97%; inhibition at 3.33 µM ([2]; read-out: % Inhibition Point 2): 101%; inhibition at 10 µM ([2]; read-out: % Inhibition Point 2): 96%; Hillslope ([3]; SRC IC50 curve): 0.99; inhibition at 0.000495 µM ([3]; read-out: % Inhibition Point 1): 10%; inhibition at 0.00152 µM ([3]; read-out: % Inhibition Point 1): 17%; inhibition at 0.000495 µM ([3]; read-out: % Inhibition Point 2): 13%; inhibition at 0.00152 µM ([3]; read-out: % Inhibition Point 2): 15%; inhibition at 0.00457 µM ([3]; read-out: % Inhibition Point 2): 22%
